The values that follow come from patent publication US20220411472A1 (FRED HUTCHINSON CANCER CENTER, published 2022).

Test [1] concerns the target T1, SH2-SpyTag (Nck2 SH2 domain with N-terminal spytag) (human).
T1 construct: also called spy-SH2; spytagged SH2 domain
T1 chain: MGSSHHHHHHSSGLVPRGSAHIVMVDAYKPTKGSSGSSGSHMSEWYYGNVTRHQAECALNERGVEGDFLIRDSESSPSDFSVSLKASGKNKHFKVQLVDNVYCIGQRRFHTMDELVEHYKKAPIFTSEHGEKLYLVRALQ
As to the kind of experiment: SDS-PAGE of the covalent capture of spy-SH2 by the Spycatcher domains of the 12-repeat subunit; lanes 0, 2, 15 min.

Test [2] addresses T2, Clover-SpyTag (Clover fluorescent protein with N-terminal spytag).
T2 construct: also called spytagged GFP derivative ('Clover'); tagged Clover
As to the kind of experiment: reducing SDS-PAGE of the covalent capture of Clover-SpyTag by the Spycatcher domains of the 12-repeat subunit; lanes [Clover (µM)] 0, 10, 40.

B1: cTRP24_Sub12_Spy (cTRP construct containing 12 repeats and inserted fusions of spycatcher domains; homodimer showing four Spycatcher domains, unloaded) (designed binder)
chain: MASSHHHHHHSSGLVPRGSSMGLDCEAIKAAAELGKAGISSEEILELLRAAHELGLDPEAIKAAAELGKAGISSEEILELLRAAHELGLDPEAIKAAAELGKAGISSEEILELLRAAHELGGSDGQDKGSDGQDKGGDS[about 80 residues omitted here]GGSDGQDKGSDGQDKGGLDPEAIKAAAELGKAGISSEEILELLRAAHELGLDPEAIKAAAELGKAGISSEEILELLRAAHELGLDPEAIKAAAELGKAGISSEEILELLRAAHELGLDPEAIKAAAELGKAGISSEEILELLRAAHELGLDPEAIKAAAELGKAGISSEEILELLRAAHELGLDPEAIKAAAELGKAGISSEEILELLRAAHELGGSDGQDKGSDGQDKGGDS[about 80 residues omitted here]GGSDGQDKGSDGQDKGGLDPEAIKAAAELGKAGISSEEILELLRAAHELGLDPEAIKAAAELGKAGISSEEILELLRAAHELGLDPECIKAAAELGKAGISSEEILELLRAAHELG
notes: also called cTRP2412SS-Spy; cTRP-Spy
B1: the binding result in test [1] and in test [2] was “binds” each time.
